The target of test [1] is full-length wild-type human PrP (aa 1–253) with five octarepeats (PG5) (human) (UniProt P04156). Put plainly: co-IP.
In test [2] the target is GST-TPPP1–219 (human) (UniProt O94811). Put plainly: co-IP; both purified.
For test [3] the target is unchanged. Put plainly: co-IP; […] (5 µM) […], pH 8.0, 4 h; […]; both purified.
The target in test [4] is full-length TPPP expressed in HeLa (pcDNA3.1-TPPP) (human) (UniProt O94811). Put plainly: co-IP.
The target of the next test is His-PrP23–231 (UniProt P04156). Put plainly: pull-down; […] (5 µM, […], pH 8.0; […]; both purified.
The target in another test is His-PrP90–231 (UniProt P04156). The description is as above.
For another test, the target named is GST-PrP23–231 (UniProt P04156). Put plainly: co-IP; both purified.
In test [5] the target is GST-TPPP50–219 (human) (UniProt O94811). Put plainly: co-IP; […] (5 µM) […], pH 8.0, 4 h; […]; both purified.
The target of test [6] is GST-TPPP100–219 (human) (UniProt O94811). The description is as above.
Test [7] concerns the target GST-TPPP50–219 (human) (UniProt O94811). Put plainly: pull-down; both purified.
Test [8] deals with GST-TPPP100–219 (human) (UniProt O94811). Put plainly: pull-down; both purified.
The target in test [9] is GST-TPPP1–219 (human) (UniProt O94811). Put plainly: pull-down; both purified.

Results are given in words; binding and its absence hold for the method and conditions named. For some of these results: Binding seen in cells or lysates may run through a third protein. Some entries that bind do so weakly or less than the wild type.

Consider “full-length TPPP expressed in HeLa (pcDNA3.1-TPPP) (from UniProt O94811 1-219)”, for which the binding entry in test [1] was “binds”.

For the substance “GST-PrP23–90 (from UniProt P04156 23-90) (domain or fragment)”, in the test with GST-TPPP1–219 (human) [2], the binding result was “no binding (tested: 5 µM)”.

“His-PrP90–231 (from UniProt P04156 90-231) (domain or fragment)”: the binding result in the test with GST-TPPP1–219 (human) [3] is “binds”.

As for “full-length wild-type human PrP (aa 1–253) with five octarepeats (PG5) (from UniProt P04156 23-230)”, the binding result in test [4] was “binds”.

For “GST-TPPP1–219 (from UniProt O94811 1-219)”, the binding entry in the test with His-PrP23–231, with His-PrP90–231 and in the test with GST-PrP23–231 was “binds” throughout.

For the substance “His-PrP23–231 (from UniProt P04156 23-231)”, the binding entry in the test with GST-TPPP50–219 (human) [5], with GST-TPPP100–219 (human) [6], with GST-TPPP1–219 (human) [3], in the test with GST-TPPP50–219 (human) [7], in the test with GST-TPPP100–219 (human) [8] and in the test with GST-TPPP1–219 (human) [9] was “binds” throughout.

For the origin of these results see publication PMC3155546 (PLoS ONE, 2011).
